According to the supplement of paper PMC9174493:
The other results are listed elsewhere or left out. Single values of this set are uncertain. Values with irradiation are relative to irradiated vehicle.

Columns and labels:
A549-Dual [1] = experiment: NF-kB reporter (SEAP) activity, viability-corrected, relative to vehicle (fold change vs vehicle); higher = more activation of STING-IRF / NF-kB immune response reporter
A549-Dual [2] = experiment: ISRE reporter (Lucia luciferase) activity, viability-corrected, relative to vehicle (fold change vs vehicle); higher = more activation of STING-IRF / NF-kB immune response reporter
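For NF-kB reporter (SEAP) activity, viability-corrected, relative to vehicle in this document: viability correction based on the alamar blue assay, with concentrations leaving 10% survival or less dropped.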

Row | SMILES | NF-kB reporter (A549-Dual [1]; 0.1 µM, irradiation: 8 Gy/4 fr) | NF-kB reporter (A549-Dual [1]; 0.1 µM, irradiation: none) | NF-kB reporter (A549-Dual [1]; 0.3 µM, irradiation: 8 Gy/4 fr) | NF-kB reporter (A549-Dual [1]; 0.3 µM, irradiation: none) | NF-kB reporter (A549-Dual [1]; 1 µM, irradiation: 8 Gy/4 fr) | NF-kB reporter (A549-Dual [1]; 1 µM, irradiation: none) | NF-kB reporter (A549-Dual [1]; 3 µM, irradiation: 8 Gy/4 fr) | NF-kB reporter (A549-Dual [1]; 3 µM, irradiation: none) | NF-kB reporter (A549-Dual [1]; 10 µM, irradiation: 8 Gy/4 fr) | NF-kB reporter (A549-Dual [1]; 10 µM, irradiation: none) | ISRE reporter (A549-Dual [2]; 0.1 µM, irradiation: 8 Gy/4 fr) | ISRE reporter (A549-Dual [2]; 0.1 µM, irradiation: none) | ISRE reporter (A549-Dual [2]; 0.3 µM, irradiation: 8 Gy/4 fr) | ISRE reporter (A549-Dual [2]; 0.3 µM, irradiation: none) | ISRE reporter (A549-Dual [2]; 1 µM, irradiation: 8 Gy/4 fr) | ISRE reporter (A549-Dual [2]; 1 µM, irradiation: none) | ISRE reporter (A549-Dual [2]; 3 µM, irradiation: 8 Gy/4 fr) | ISRE reporter (A549-Dual [2]; 3 µM, irradiation: none) | ISRE reporter (A549-Dual [2]; 10 µM, irradiation: 8 Gy/4 fr) | ISRE reporter (A549-Dual [2]; 10 µM, irradiation: none)
1 | NC(CO)(CO)CO.O=C(c1ccccc1)c1ccc2n1CCC2C(=O)O (stereo not given) [Ketorolac tromethamine salt] | 1.2 | 1.4 | 1.39 | 1.18 | 1.43 | 1.18 | 1.51 | 1.04 | 1.26 | 1.1 | 1.15 | 1.21 | 1.22 | 0.902 | 0.98 | 0.885 | 0.998 | 1.07 | 0.953 | 0.837
2 | Nc1ccc(O)c(C(=O)O)c1 [Mesalamine] | 0.742 | 0.974 | 0.892 | 1.03 | 1.13 | 0.864 | 1.13 | 0.851 | 0.884 | 0.936 | 0.773 | 0.901 | 0.72 | 0.821 | 0.699 | 0.75 | 0.781 | 0.794 | 0.795 | 0.906
3 | CC(C)C(=O)Nc1ccc([N+](=O)[O-])c(C(F)(F)F)c1 [Flutamide] | 0.892 | 0.988 | 0.98 | 1.01 | 0.791 | 0.912 | 0.896 | 0.828 | 0.858 | 0.949 | 1.03 | 0.904 | 1.04 | 1 | 0.785 | 0.967 | 0.771 | 0.67 | 0.8 | 0.846
4 | CCOC(=O)c1c(N)sc2c1CCN(Cc1ccccc1)C2.Cl [Tinoridine hydrochloride] | 0.944 | 0.87 | 0.919 | 0.905 | 0.981 | 0.783 | 0.938 | 0.862 | 0.764 | 0.96 | 0.897 | 0.646 | 0.869 | 0.564 | 0.684 | 0.664 | 0.836 | 0.813 | 0.7 | 0.797
5 | O=C(Oc1ccccc1C(=O)O)c1ccccc1O [Sasapyrine] | 1.05 | 1.19 | 1.32 | 1.07 | 1.36 | 1.15 | 1.38 | 1.12 | 1.22 | 0.887 | 1.08 | 1.17 | 1.2 | 1.06 | 1.17 | 0.97 | 1.13 | 1.17 | 1.1 | 0.937
6 | CC1CC2C3CC(F)C4=CC(=O)C=CC4(C)C3(F)C(O)CC2(C)C1(OC(=O)c1ccco1)C(=O)SCF (stereo not given) [fluticasone furoate] | 0.787 | 0.845 | 0.854 | 0.846 | 0.728 | 1.1 | 0.745 | 0.764 | 0.766 | 0.716 | 0.0405 | 0.191 | 0.0518 | 0.155 | 0.0344 | 0.236 | 0.063 | 0.236 | 0.0466 | 0.185
7 | COc1ccc2c(c1)c(CC(=O)OCC(=O)O)c(C)n2C(=O)c1ccc(Cl)cc1 [Acemetacin] | 0.771 | 0.813 | 0.595 | 0.938 | 0.869 | 0.825 | 0.72 | 0.93 | 0.712 | 0.904 | 0.796 | 0.687 | 0.57 | 0.709 | 0.549 | 0.826 | 0.661 | 0.92 | 0.676 | 0.921
8 | CN1CCC(=C2c3ccccc3C=Cc3ccccc32)CC1.Cl [Cyproheptadine hydrochloride] | 1.03 | 1.01 | 1.11 | 0.884 | 1.17 | 0.828 | 1.21 | 0.89 | 0.71 | 0.866 | 0.879 | 0.893 | 0.929 | 0.826 | 0.939 | 0.865 | 1 | 0.894 | 1.1 | 1.23
9 | CCCCOC(=O)c1ccccc1Nc1cccc(C(F)(F)F)c1 [Ufenamate] | 1.08 | 1.28 | 0.967 | 1.15 | 1.24 | 0.962 | 1.47 | 0.949 | 0.881 | 1 | 1.12 | 1.23 | 1.01 | 0.934 | 0.982 | 0.899 | 0.833 | 0.851 | 0.84 | 0.927
10 | CNC(=O)c1ccccc1Sc1ccc2c(/C=C/c3ccccn3)n[nH]c2c1 [Axitinib] | 1.01 | 0.961 | 0.98 | 1.14 | 0.968 | 1.25 | 0.824 | 1.12 | 0.863 | 1.11 | 0.975 | 1.22 | 0.989 | 1.67 | 0.833 | 2.28 | 0.373 | 1.24 | 0.411 | 1.35
11 | COc1nc2ccc(Br)cc2cc1C(c1ccccc1)C(O)(CCN(C)C)c1cccc2ccccc12 (stereo not given) [Bedaquiline] | 1.07 | 2.03 | 1.32 | 1.71 | 1.36 | 1.3 | 1.85 | 1.29 | 1 | 0.943 | 1.09 | 1.89 | 1.11 | 1.27 | 1.21 | 1.34 | 1.15 | 1.31 | 1.41 | 1.3
12 | Cc1ccc(C(C)C)c(O)c1 [Thymol] | 1.13 | 1.71 | 1.23 | 1.43 | 1.25 | 1.19 | 1.8 | 1.2 | 1.25 | 1.28 | 1.21 | 1.77 | 1.17 | 1.28 | 1.16 | 1.1 | 1.01 | 1.09 | 1.05 | 0.969
13 | O=C(O)c1cc(-c2ccc(F)cc2F)ccc1O [Diflunisal] | 0.871 | 0.766 | 1.11 | 0.767 | 0.897 | 0.903 | 0.793 | 0.8 | 0.828 | 0.708 | 0.908 | 0.764 | 0.865 | 0.694 | 0.726 | 0.737 | 0.881 | 0.839 | 0.763 | 0.751
14 | C=CC1CN2CCC1CC2C(O)c1ccnc2ccc(OC)cc12.Cl.O.O (stereo not given) [Quinine HCl Dihydrate] | 0.854 | 1.19 | 0.764 | 1.25 | 0.928 | 0.997 | 1.32 | 1.01 | 0.936 | 0.888 | 0.955 | 0.963 | 0.714 | 0.865 | 0.7 | 0.941 | 0.977 | 1.09 | 1.29 | 1.33
15 | COc1cc2ncnc(Nc3ccc(F)c(Cl)c3)c2cc1OCCCN1CCOCC1.Cl [Gefitinib hydrochloride] | 1.13 | 1.37 | 0.974 | 1.16 | 0.963 | 1.54 | 0.966 | 1.22 | 0.913 | 1.14 | 1.06 | 1.42 | 1.21 | 1.07 | 1.09 | 1.07 | 1.14 | 1.03 | 1.05 | 1.36
16 | Nc1ccc(F)cc1NC(=O)c1ccc(CNC(=O)/C=C/c2cccnc2)cc1 [Tucidinostat (Chidamide)] | 1.06 | 1.19 | 1.13 | 1.18 | 1.14 | 1.31 | 0.808 | 1.2 | 0.693 | 1.09 | 0.986 | 1.44 | 0.722 | 1.3 | 0.788 | 1.27 | 0.192 | 0.808 | 0.171 | 0.631
17 | CNNCc1ccc(C(=O)NC(C)C)cc1.Cl [Procarbazine HCl] | 1.17 | 1.06 | 1.02 | 1.34 | 1.01 | 1.63 | 1.02 | 1.43 | 0.885 | 1.01 | 1.12 | 1.31 | 0.973 | 1.12 | 0.948 | 1.39 | 1.02 | 1.08 | 0.984 | 0.923
18 | COc1cc2c3cc1Oc1c(OC)c(OC)cc4c1C(Cc1ccc(O)c(c1)Oc1ccc(cc1)CC3N(C)CC2)N(C)CC4 (stereo not given) [Berbamine] | 1.22 | 1.12 | 0.977 | 1.44 | 1.12 | 1.45 | 1.12 | 1.18 | 0.796 | 1.04 | 1.12 | 1.52 | 1.08 | 1.46 | 1.08 | 1.48 | 1.29 | 1.71 | 1.03 | 1.44
19 | CC(=O)NC(C=O)C(O)C(O)C(O)CO (stereo not given) [N-Acetylglucosamine] | 1.2 | 1.16 | 1.18 | 1.28 | 1.28 | 1.06 | 1.62 | 1.05 | 1.01 | 1.29 | 1.16 | 1.1 | 1.07 | 1.15 | 1.18 | 1.07 | 1.23 | 1.06 | 1.06 | 0.865
20 | C/C=C(/C(=C/C)c1ccc(O)cc1)c1ccc(O)cc1 [Dienestrol] | 0.878 | 0.955 | 0.995 | 0.955 | 0.878 | 0.912 | 0.927 | 0.942 | 1.01 | 1.04 | 0.906 | 0.947 | 1.07 | 1.01 | 0.946 | 0.972 | 0.945 | 0.965 | 1.01 | 0.945
21 | CCc1cccc2c3c([nH]c12)C(CC)(CC(=O)O)OCC3 (stereo not given) [Etodolac] | 0.86 | 1.02 | 0.944 | 1.19 | 1.21 | 0.896 | 1.32 | 0.914 | 0.888 | 0.963 | 0.849 | 0.813 | 0.778 | 0.773 | 0.787 | 0.867 | 0.773 | 0.865 | 0.782 | 0.894
22 | C#Cc1cccc(Nc2ncnc3cc(OCCOC)c(OCCOC)cc23)c1 [Erlotinib] | 1 | 0.915 | 0.868 | 0.91 | 1.03 | 1.08 | 1.01 | 1.09 | 1.04 | 0.948 | 0.962 | 1.05 | 0.947 | 0.808 | 0.951 | 0.751 | 1.06 | 0.732 | 0.879 | 0.713
23 | CC(=O)Nc1ccccc1 [Acetanilide] | 0.93 | 1.55 | 1.15 | 2.11 | 1.5 | 1.21 | 1.63 | 1.18 | 1.12 | 0.919 | 1.07 | 1.25 | 1.02 | 1.25 | 0.988 | 1.15 | 1.06 | 1.21 | 0.965 | 0.833
24 | COC(=O)C(Cc1ccccc1)NC(=O)C(N)CC(=O)O (stereo not given) [Aspartame] | 1.03 | 1.74 | 1.27 | 2.02 | 1.61 | 1.31 | 1.94 | 1.28 | 1.46 | 0.993 | 1.09 | 1.37 | 1.13 | 1.34 | 1.15 | 1.18 | 1.17 | 1.35 | 1.12 | 0.739
25 | O=C(O)Cc1ccccc1Nc1c(Cl)cccc1Cl [Diclofenac acid] | 0.73 | 0.725 | 0.83 | 0.664 | 0.977 | 0.83 | 1.22 | 0.722 | 0.796 | 0.554 | 0.725 | 0.765 | 0.811 | 0.727 | 0.751 | 0.887 | 0.967 | 0.815 | 0.807 | 0.671
